According to patent publication US20210324096A1 (Genmab, published 2021):

Target: T1, cynomolgus monkey DR5 protein with deletion of amino acids 185-213 and death domain loss-of-function mutation … (cynomolgus monkey (Macaca fascicularis))
T1 construct: Transiently expressed on CHO cells; also called Cyno DR5Mfdel-K420N; cynomolgus DR5-transfected CHO
T1 chain: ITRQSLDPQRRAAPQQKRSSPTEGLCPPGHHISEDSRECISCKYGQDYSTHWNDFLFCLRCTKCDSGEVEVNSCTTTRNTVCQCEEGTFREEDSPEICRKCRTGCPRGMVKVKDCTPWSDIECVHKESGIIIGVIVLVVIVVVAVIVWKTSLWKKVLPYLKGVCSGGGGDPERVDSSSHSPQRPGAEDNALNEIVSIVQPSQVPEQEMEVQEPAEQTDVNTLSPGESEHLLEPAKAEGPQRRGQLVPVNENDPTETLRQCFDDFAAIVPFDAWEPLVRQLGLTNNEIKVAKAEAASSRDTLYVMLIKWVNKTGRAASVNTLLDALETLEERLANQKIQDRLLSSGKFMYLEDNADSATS
Test: flow cytometry on cynomolgus DR5-transfected CHO cells, four experiments (SD 0.175)

B1: IgG1-hDR5-01-G56T-E430G (antibody)
heavy: EVQLQQSGAEVVKPGASVKLSCKASGFNIKDTFIHWVKQAPGQGLEWIGRIDPANTNTKYDPKFQGKATITTDTSSNTAYMELSSLRSEDTAVYYCVRGLYTYYFDYWGQGTLVTVSSASTKGPSVFPLAPSSKSTSGGTAALGCLVKDYFPEPVTVSWNSGALTSGVHTFPAVLQSSGLYSLSSVVTVPSSSLGTQTYICNVNHKPSNTKVDKRV[human IgG1 Fc with E430G (EU numbers) left out]
light: EIVMTQSPATLSVSPGERATLSCRASQSISNNLHWYQQKPGQAPRLLIKFASQSITGIPARFSGSGSGTEFTLTISSLQSEDFAVYYCQQGNSWPYTFGQGTKLEIKRTVAAPSVFIFPPSDEQLKSGTASVVCLLNNFYPREAKVQWKVDNALQSGNSQESVTEQDSKDSTYSLSSTLTLSKADYEKHKVYACEVTHQGLSSPVTKSFNRGEC
notes: IgG1,kappa
Binder B1 has an EC50 of 0.27 µg/mL.
